Experimental data taken from the supplement of paper PMC3334620.
Whole data set: some 33,000 sequences, median “E-score (-0.5 to 0.5)” near -0.016, cut for the highest 2% near 0.31. The list shows a part of the results.

Target: Cst6 (UniProt P40535)
Assay: PBM E-score (8-mer binding enrichment) (E-score (-0.5 to 0.5)); higher = stronger / more preferred TF binding; most listed sequences are background and not binding sites
Settings: protein concentration: 200 nM; construct: GST-DNA-binding domain
How it was run: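 Masliner-normalised scans of fluorescent anti-GST signal were the basis for scoring. That signal came from GST-tagged yeast transcription factors applied at about 100-200 nM to double-stranded universal all-10-mer Agilent arrays on fresh or once-stripped slides. Each ungapped eight-base word, pooled with its reverse complement, received an E-score from the Universal PBM Analysis Suite.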

| Sequence | PBM E-score |
| --- | --- |
| CACAGACG | -0.0598 |
| TACATGAA | 0.0609 |
| CACCTCGG | 0.02 |
| ACTGGACT | -0.135 |
| GGAACTCC | -0.141 |
| AGTAGCTC | -0.186 |
| ATATGCCG | 0.221 |
| TAGTTTCA | 0.175 |
| GTAAATAA | 0.176 |
| GACAGTCA | -0.0779 |
| CCCAGACG | -0.271 |
| ACTCTGAG | -0.194 |
| CGGTCGTC | -0.203 |
| ACCATGGT | -0.351 |
| CCCCTTTA | -0.159 |
| CCCCCACC | -0.435 |
| ATACTCTC | -0.0323 |
| CACGGGAA | -0.185 |
| GAGAACCA | 0.0429 |
| ATACCCCC | -0.345 |
| CGGGAAAC | -0.0865 |
| AGGCTCAG | -0.115 |

| Sequence | PBM E-score |
| --- | --- |
| CCTAGGTA | -0.191 |
| GGCGGAAA | -0.0125 |
| AGAGGAGC | -0.205 |
| CCGCGAAC | -0.188 |
| AACAGTTA | 0.0317 |
| ACGCGCCG | 0.182 |
| AATCCATG | 0.0306 |
| AAATTCAT | 0.228 |
| ATCGTCCG | 0.133 |
| ACTTCATG | 0.0085 |
| CACCCGTA | -0.0938 |
| ACAGCCAC | 0.034 |
| CACCCTGG | -0.236 |
| CCTCATGC | -0.15 |
| AGGGCACT | -0.0161 |
| ATCTCTTG | -0.135 |
| CTCCCATA | -0.29 |
| GCTACGCC | -0.193 |
| GAGGGAAA | -0.0916 |
| ATTGCAGA | 0.146 |
| CCGTAACC | -0.0836 |
| CCTGAGGA | -0.157 |

| Sequence | PBM E-score |
| --- | --- |
| CAAGTGGA | -0.172 |
| AAACTTTA | 0.151 |
| AGCCGGAT | -0.191 |
| AATCTGGT | -0.084 |
| CACAACAA | 0.134 |
| CGTACTAC | 0.0114 |
| GAAACTTA | 0.19 |
| CGTAGAAA | 0.0476 |
| AGTTTTTA | 0.257 |
| AGGAAGCA | -0.216 |
| AGATTCAT | -0.0798 |
| CAGTCGCC | -0.122 |
| TGAACCCA | -0.0205 |
| ACCCCTAC | -0.213 |
| AATAGGTG | -0.0703 |
| CTTGGACA | -0.109 |
| AGCCCTAT | -0.175 |
| CTTACACC | -0.0382 |
| AAAAACAT | 0.183 |
| GACCAAAC | 0.0333 |
| TAGTCCGA | -0.175 |
| GCTCAGCA | 0.0438 |

| Sequence | PBM E-score |
| --- | --- |
| AAGTATTA | -0.00257 |
| ACACCCGC | 0.0688 |
| CCAAATGG | -0.0413 |
| AAGGCGTA | 0.0577 |
| CGGTTCGC | -0.0841 |
| CGAGCAGC | -0.0327 |
| GAGGATCA | -0.069 |
| GTGGTTGA | -0.0661 |
| AGATGGAA | -0.0939 |
| AATTTAGT | 0.235 |
| TGCGGCCA | -0.00532 |
| GCTTCGAC | -0.171 |
| ACGTAGGG | -0.0499 |
| ATAGGCTG | -0.0693 |
| AGTCAGGG | -0.293 |
| AGCCTTGC | -0.0321 |
| ACTATGTC | 0.0789 |
| AGCCTACG | 0.07 |
| CATTGGAC | -0.0317 |
| CGTAAATC | 0.149 |
| CGAGGTTA | -0.0824 |
| CCTTTTTA | 0.122 |

| Sequence | PBM E-score |
| --- | --- |
| TGAGGCCA | 0.0335 |
| ACTGTGCA | -0.112 |
| AAAACCTC | 0.103 |
| CGCCCTGC | -0.0262 |
| GAGGGAGA | -0.319 |
| ATTAAGCA | 0.0979 |
| CAGTGCTC | -0.139 |
| TCGGTGAA | -0.139 |
| AAGCTTAC | 0.00659 |
| TAACATGA | 0.155 |
| GCGAGTTA | 0.1 |
| CAGCTTCG | -0.0525 |
| GACTTCGA | -0.00203 |
| CGCAACCG | -0.131 |
| GATTTAGA | -0.0338 |
| CACGTACA | -0.0529 |
| AGTCCGCC | -0.252 |
| ATAGTAAG | 0.167 |
| CGGGGTGA | 0.124 |
| AGCGAGGC | -0.0448 |
| AAGCGTAC | -0.13 |
| ATAGGATG | 0.0591 |
